In PMC5540273 (PLoS ONE, 2017):
For some of these results: This list holds what a sample rich in strong results left over. This is a selection; strong and weak results do not stand in their true shares.

Assays:
Conditions in all cases: concentration: 1 μM,replicates: in singlicate; n = 1
PRKD1 = test system: PRKD1
PRKD2 = test system: PRKD2
PRKD3 = test system: PRKD3
PRKG1 = test system: PRKG1
PRKG2 = test system: PRKG2
PRKR = test system: T1, PRKR
T1 construct: gene EIF2AK2

PRKX = test system: PRKX
PRP4 = test system: PRP4
PYK2 = test system: T2, PYK2
T2 construct: gene PTK2B

QSK = test system: QSK
RAF1 = test system: RAF1
RET = test system: RET
RIOK1 = test system: RIOK1
RIOK2 = test system: RIOK2
RIOK3 = test system: RIOK3
RIPK1 = test system: RIPK1
RIPK2 = test system: RIPK2
RIPK4 = test system: RIPK4
RIPK5 = test system: RIPK5
ROCK1 = test system: ROCK1
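Also: KINOMEscan kinase panel screen.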

SMILES	%Inh (PRKD1)	%Inh (PRKD2)	%Inh (PRKD3)	%Inh (PRKG1)	%Inh (PRKG2)	%Inh (PRKR)	%Inh (PRKX)	%Inh (PRP4)	%Inh (PYK2)	%Inh (QSK)	%Inh (RAF1)	%Inh (RET)	%Inh (RIOK1)	%Inh (RIOK2)	%Inh (RIOK3)	%Inh (RIPK1)	%Inh (RIPK2)	%Inh (RIPK4)	%Inh (RIPK5)	%Inh (ROCK1)
CSc1ccc(NC2=C(c3cccc(Cl)c3)C(=O)NC2=O)cc1 [SB-341528]	0%	0%	0%	0%	0%	9%	0%	37%	0%	19%	24%	0%	9%	0%	0%	0%	0%	5%	10%	7%
COc1cccc(C2=C(Nc3ccc(SC)cc3)C(=O)NC2=O)c1 [SB-331032]	0%	0%	0%	0%	0%	11%	0%	0%	0%	0%	8%	0%	33%	0%	22%	2%	0%	9%	26%	0%
O=C1NC(=O)c2c1c(-c1ccccc1)cc1[nH]c3ccc(O)cc3c21	0%	0%	0%	2%	89%	0%	21%	10%	9%	38%	0%	9%	70%	0%	88%	0%	12%	18%	29%	13%
O=C1NC(=O)C(c2ccc(Cl)cc2)=C1Nc1cccc(O)c1 [SB-333613]	0%	0%	0%	12%	18%	0%	0%	0%	0%	21%	19%	6%	0%	6%	9%	0%	0%	34%	38%	33%
O=C1NC(=O)C(c2ccc(Cl)cc2)=C1Nc1ccc(O)c(Cl)c1 [SB-405367]	4%	0%	35%	0%	7%	15%	10%	32%	18%	14%	17%	0%	0%	0%	10%	0%	0%	16%	28%	0%
Cc1ccc(C)c(Oc2nccc(-c3c(-c4ccc(F)cc4)ncn3C3CCNCC3)n2)c1.O=C(O)C(F)(F)F.O=C(O)C(F)(F)F.O=C(O)C(F)(F)F [SB-284852]	7%	6%	2%	6%	24%	0%	0%	0%	96.5%	0%	0%	0%	39%	0%	28%	0%	38%	0%	0%	0%
CS(=O)(=O)c1ccccc1-c1nc(-c2ccc(F)cc2)c(-c2ccncc2)[nH]1 [SB-213663]	12%	10%	0%	32%	28%	1%	0%	0%		0%	47%	36%	29%	0%	10%	0%	30%	26%	0%	11%
O=C1NC(=O)C(c2ccccc2Cl)=C1Nc1ccccc1 [SB-376715]	0%	13%	16%	0%	5%	26%	22%	2%	0%	13%	10%	14%	11%	0%	12%	1%	24%	0%	0%	0%
O=C(O)c1ccc(-c2nc(-c3ccc(F)cc3)c(-c3ccncc3)[nH]2)cc1 [SB-202620]	0%	11%	19%	0%	12%	11%	0%	0%	24%	0%	47%	31%	8%	0%	4%	0%	78%	32%	30%	0%
O=C1NC(=O)C(c2ccccc2Cl)=C1Nc1cccc(C(=O)O)c1 [SB-390526]	0%	21%	51%	12%	0%	4%	14%	31%	14%	17%	4%	10%	23%	16%	0%	1%	11%	2%	0%	0%
O=C1NC(=O)C(c2ccccc2)=C1Nc1cc(Cl)c(O)c(Cl)c1 [SB-390530]	8%	2%	16%	0%	0%	3%	0%	8%	0%	0%	20%	0%	15%	0%	11%	0%	0%	6%	4%	8%
Cc1cc(C)cc(Oc2nccc(-c3c(-c4ccc(F)cc4)ncn3C3CCNCC3)n2)c1.O=C(O)C(F)(F)F.O=C(O)C(F)(F)F.O=C(O)C(F)(F)F [SB-284851]	0%	0%	0%	1%	0%	0%	0%	34%	22%	0%	37%	0%	35%	0%	32%	0%	39%	0%	0%	0%
O=C1NC(=O)C(c2ccccc2)=C1Nc1ccc(Cl)c(C(=O)O)c1 [SB-390532]	0%	4%	0%	0%	0%	0%	0%	46%	0%	0%	2%	13%	9%	0%	0%	45%	26%	15%	0%	40%
O=C1NC(=O)C(c2ccc(Cl)cc2)=C1Nc1cccc(C(=O)O)c1 [SB-360737]	0%	0%	26%	1%	0%	0%	6%	33%	6%	7%	22%	10%	21%	0%	6%	0%	7%	18%	14%	75%
COc1ccc(C2=C(Nc3cccc(Cl)c3)C(=O)NC2=O)cc1 [SB-326892]	0%	3%	0%	0%	0%	0%	0%	0%	0%	0%	27%	0%	29%	0%	23%	0%	0%	0%	0%	0%
O=C1NC(=O)C(c2ccc(Cl)cc2)=C1Nc1ccccc1 [SB-317661]	39%	0%	0%	25%	0%	43%	0%	0%	16%	0%	13%	0%	0%	0%	0%	0%	0%	0%	23%	3%
